These results are taken from PMC11231238, “SPRING licenses S1P-mediated cleavage of SREBP2 by displacing an inhibitory pro-domain” (Nature Communications, 2024).

Where a chain is given by its changes, count along the chain named. These are yes or no findings as the source states them, for the method shown. In cells and extracts the contact can be indirect. Some entries that bind do so weakly or less than the wild type. Sequences can lack the tags named with a protein.

What all share (assay): pull-down; HEK 293T supernatants of co-transfected cells with 50 mM imidazole; NiNTA resin holds the His10 tag of S1P_(ecto), 1-2 h at 4 °C; washes in 150 mM NaCl, 50 mM HEPES-NaOH pH 7.5, 50 mM imidazole; elution with 300 mM imidazole; immunoblot anti-HA, anti-His, anti-FLAG
A general note: In western blotting, separated proteins are transferred to a membrane and probed.

Experiment [1] has as its target T1, FLAG-S1P_(ecto)-His10, matured C-form (human, UniProt Q14703 187-998).
T1 construct: human S1P (MBTPS1); expressed as IgK leader-FLAG-residues 23-998-His10; after autoproteolysis the His10-bearing C-form; The N-terminal FLAG tag leaves with the A-domain; also called WT S1P_(ecto); C-form of S1P_(ecto); source: HEK 293S GnTI- (BacMam baculovirus), secreted, purified (NiNTA, gel filtration); HEK 293T, transfected, secreted, in supernatant; not shown: His10, C-terminal, kept
T1 sequence (looked up): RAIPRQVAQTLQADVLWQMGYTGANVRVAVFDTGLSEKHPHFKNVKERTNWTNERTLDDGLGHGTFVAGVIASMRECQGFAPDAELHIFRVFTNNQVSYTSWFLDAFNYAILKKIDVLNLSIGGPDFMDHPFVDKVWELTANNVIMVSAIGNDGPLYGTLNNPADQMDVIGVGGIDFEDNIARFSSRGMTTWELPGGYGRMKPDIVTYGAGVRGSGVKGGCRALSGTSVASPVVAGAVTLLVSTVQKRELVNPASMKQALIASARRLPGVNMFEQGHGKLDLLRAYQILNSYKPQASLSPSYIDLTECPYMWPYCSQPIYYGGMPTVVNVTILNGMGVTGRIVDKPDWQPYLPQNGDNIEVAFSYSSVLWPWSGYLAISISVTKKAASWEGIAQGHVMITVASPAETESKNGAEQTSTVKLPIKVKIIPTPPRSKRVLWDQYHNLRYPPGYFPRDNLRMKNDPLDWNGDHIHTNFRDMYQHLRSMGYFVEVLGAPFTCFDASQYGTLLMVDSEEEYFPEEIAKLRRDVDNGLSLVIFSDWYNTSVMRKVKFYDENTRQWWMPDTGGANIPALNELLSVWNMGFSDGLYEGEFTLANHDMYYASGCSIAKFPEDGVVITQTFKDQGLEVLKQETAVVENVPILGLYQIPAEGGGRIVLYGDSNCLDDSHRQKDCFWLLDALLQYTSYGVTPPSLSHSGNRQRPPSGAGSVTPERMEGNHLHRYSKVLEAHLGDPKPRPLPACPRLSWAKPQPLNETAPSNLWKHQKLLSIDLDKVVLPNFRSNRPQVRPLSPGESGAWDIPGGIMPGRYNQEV

The target in experiment [2] is T2, S1P_(ecto)^N328A (FLAG-S1P_(ecto)-His10 background) (human) (UniProt Q14703).
T2 sequence: T1 sequence (looked up) with N142A

Experiment [3] deals with T3, FLAG-S1P_(ecto)^S414A-His10 (A-form) (human) (UniProt Q14703).
T3 sequence: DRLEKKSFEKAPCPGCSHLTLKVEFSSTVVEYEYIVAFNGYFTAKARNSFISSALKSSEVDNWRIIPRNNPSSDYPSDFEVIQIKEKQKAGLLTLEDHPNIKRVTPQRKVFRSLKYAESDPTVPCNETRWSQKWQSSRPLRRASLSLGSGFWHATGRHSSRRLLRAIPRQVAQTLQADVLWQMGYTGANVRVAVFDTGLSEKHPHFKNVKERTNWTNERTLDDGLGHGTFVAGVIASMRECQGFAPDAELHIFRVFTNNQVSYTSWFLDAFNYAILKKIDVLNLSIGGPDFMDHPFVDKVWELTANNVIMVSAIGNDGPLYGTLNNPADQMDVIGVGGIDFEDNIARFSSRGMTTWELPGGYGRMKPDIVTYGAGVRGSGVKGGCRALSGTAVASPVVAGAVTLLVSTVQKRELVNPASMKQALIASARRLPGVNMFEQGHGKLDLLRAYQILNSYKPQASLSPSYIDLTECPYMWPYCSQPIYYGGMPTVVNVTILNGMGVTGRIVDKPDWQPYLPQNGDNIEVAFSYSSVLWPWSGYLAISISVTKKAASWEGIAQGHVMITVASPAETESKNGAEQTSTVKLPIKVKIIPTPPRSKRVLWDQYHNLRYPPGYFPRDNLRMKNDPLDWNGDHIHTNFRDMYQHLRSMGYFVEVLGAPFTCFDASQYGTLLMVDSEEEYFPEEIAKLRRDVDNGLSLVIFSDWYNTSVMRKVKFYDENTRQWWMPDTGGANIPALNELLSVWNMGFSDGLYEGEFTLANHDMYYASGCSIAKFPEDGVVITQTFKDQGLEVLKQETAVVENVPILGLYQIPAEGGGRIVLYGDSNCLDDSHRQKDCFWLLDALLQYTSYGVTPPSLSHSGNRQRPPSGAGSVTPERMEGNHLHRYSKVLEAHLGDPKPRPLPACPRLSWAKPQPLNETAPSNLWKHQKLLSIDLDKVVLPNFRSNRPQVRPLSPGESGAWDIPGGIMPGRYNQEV

B1: SPRING_(ecto)-HA (domain or fragment, UniProt Q9H741 36-205)
chain: KQEERAVRDRNLLQVHDHNQPIPWKVQFNLGNSSRPSNQCRNSIQGKHLITDELGYVCERKDLLVNGCCNVNVPSTKQYCCDGCWPNGCCSAYEYCVSCCLQPNKQLLLERFLNRAAVAFQNLFMAVEDHFELCLAKCRTSSQSVQHENTYRDPIAKYCYGESPPELFPA
Consider B1, for which the values for the binding entry in experiment [1], in experiment [2] and in experiment [3] were “binds”, “no binding” and “no binding”, respectively.
